A word on the inhibition: it is the drop in the measured response relative to a control, in per cent.

In all, about 340,000 compounds went through this assay and about 6,900 (2%) were called active. No stated cut-off is given here; in the data, active means inhibition above about 30%; inactive means below that, where a call was filed. The list shows a part of the results, in another mix than the full data. The source gives no active or inactive call for entries shown without one.

Sequence of UniProt P14416 (P14416 whole entry, looked up): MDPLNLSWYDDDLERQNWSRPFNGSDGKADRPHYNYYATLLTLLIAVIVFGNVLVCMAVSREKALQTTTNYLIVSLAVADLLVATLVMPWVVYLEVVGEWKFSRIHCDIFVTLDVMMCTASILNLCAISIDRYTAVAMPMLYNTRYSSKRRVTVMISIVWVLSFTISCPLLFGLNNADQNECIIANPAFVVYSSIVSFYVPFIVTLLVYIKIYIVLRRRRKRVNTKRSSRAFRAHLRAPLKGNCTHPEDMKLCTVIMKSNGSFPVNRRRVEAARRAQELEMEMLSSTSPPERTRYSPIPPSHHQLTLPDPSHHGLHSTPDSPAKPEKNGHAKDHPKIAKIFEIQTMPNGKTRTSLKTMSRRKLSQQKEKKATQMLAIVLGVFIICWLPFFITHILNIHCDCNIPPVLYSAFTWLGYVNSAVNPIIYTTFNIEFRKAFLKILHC

For this assay, the target named is D(2) dopamine receptor (Homo sapiens) (UniProt P14416). The experiment in a line: HTS Assay for Allosteric Antagonists of the Human D2 Dopamine Receptor: Primary Screen for Antagonists. Further: 0% is about no effect. As to conditions: HEK293 TREx D2 cells, calcium flux, dopamine EC80; at 10 µM; stronger effect = higher value. The gist of the method:
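Calcium flux kinetic readout in an inducible HEK293 TREx D2 line plated overnight at 30 C. After 180 s compound exposure, an EC80 dopamine challenge follows with another 180 s kinetic read to detect antagonism.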
On the technique in general: Calcium flux is commonly read through the fluorescence of an indicator in the cells.
For the molecule `Cn1nc(-c2ccc(C(=O)Nc3ccc(F)cc3)cc2)c2ccccc2c1=O`, the inhibition is -2.31%.
For `COCCCNC(=O)CCCCn1c(=O)c2ccccc2n(CC(=O)Nc2ccc(C)cc2C)c1=O` the value was 3.42%; for `COc1ccc2cc(-c3nc4ccc(C(=O)O)cc4[nH]3)c(=O)oc2c1`, 14.1%; for `Cc1cccn2c(=O)c3cc(C#N)c(=O)n(-c4nnc(SCc5ccccc5F)s4)c3nc12`, 18.7%.
For `CC(C)c1ccc(S(=O)(=O)NCc2ccc3c(c2)CCN3C(=O)c2ccccc2)cc1` the value was -8.38%; for `COc1ccc(CNC(=O)c2ccc3c(c2)nc2n3CCC(C)C2)c(OC)c1` (centres undefined), 11%.
For `COCCNC(=O)CSc1nc2cc3c(cc2c(=O)n1CCCCCC(=O)NCc1ccc(OC)cc1)OCO3` the value was -8.27%; for `CCOc1ccccc1NC(=O)Cn1nnc2sc(-c3ccccc3)cc2c1=O`, 15.4%; for `COc1ccc(Nc2ncc3c(n2)CCN(Cc2cc(Br)cs2)C3)c(OC)c1`, 1.78%.
For `COc1ccccc1NC(=O)c1cc2c(=O)oc3ccc(C)cc3c2s1`, the inhibition came out at 7.56%.
Consider `CCOC(=O)c1ccc(N2CCN(c3cc(C)ccc3C)CC2)c(NC(=O)Nc2ccccc2)c1`, for which the inhibition was -7.82%.
Turning to `Cc1ccc(NC(=O)CSc2nc3c(oc4ccccc43)c(=O)n2-c2ccc(F)cc2)c(C)c1`, the inhibition was -7.33%.
On to `CCCCOc1ccccc1C(=O)N(Cc1ccc(C)o1)C1CCS(=O)(=O)C1` (centres undefined), for which the inhibition is 7.6%.
With `O=C(O)CSc1c2c(nc3cc(C(=O)Nc4ccc(F)c(Cl)c4)ccc13)CCC2`, the inhibition is 1.93%.
Next, `S=C(NCc1ccc2c(c1)OCO2)NC1CCN(Cc2ccccc2)CC1`: active: 103%; `N#C/C(=C\c1ccc(Cl)cc1)c1nc(-c2cc3ccccc3oc2=O)cs1`: -2.26%.
For `CCOC(=O)c1sc2cccc(F)c2c1S(=O)(=O)N1CCN(c2cccc(Cl)c2)CC1` the value was -17.2%.
As to `CCCn1c2ccccc2c2cnn(CC(=O)N3CCC(C)CC3)c(=O)c21`, the inhibition amounted to 8.42%.
On to `CCc1ccc(CNC(=O)c2cnc3sc4cc(OC)ccc4n3c2=O)cc1`, for which the inhibition was -14.5%.
Turning to `CCc1ccc(NC(=O)C(=O)NCCc2csc(-c3ccc(C(F)(F)F)cc3)n2)cc1`, the inhibition was 3.63%.
On to `Cc1cc(C)c(NC(=O)Cn2c(=O)n(Cc3ccc4c(c3)OCO4)c(=O)c3ccc(C(=O)NC4CCCCC4)cc32)c(C)c1`, for which the inhibition was -7.72%.
For `O=C(NCc1ccccc1F)c1ccc(CN2CC(=O)N3CCCCC3C2=O)cc1` (centres undefined) the value was 2%; for `CCOC(=O)c1[nH]c(C)c(CCC(=O)NCc2ccc(OCC)cc2)c1C`, -3.95%; for `Cc1ccc(NC(=O)c2c(C)oc3ccc(O)c(CN4CCCCCC4)c23)c(C)c1`, 10.1%.
For `CCCCOc1ccccc1N1CCN(CCCN2C(=O)C3CCCN3C2=O)CC1` (centres undefined) the value was active: 76.2%.
Turning to `CC(C)OCCCNC(=O)c1cc2c(-c3ccc(Cl)cc3)nn(C)c2s1`, the inhibition was -6.23%.
`COc1ccc2c(C)c(CC(=O)NCc3ccc(C)cc3)c(=O)oc2c1OC`: the inhibition is -0.122%.
For the molecule `CCCCC(Sc1nc2cc3c(cc2c(=O)n1CCCC(=O)NCc1ccc(OC)cc1)OCO3)C(=O)OCC` (centres undefined), the inhibition is -9.26%.
Consider `COc1cc(NC(=O)C2CCCN(S(=O)(=O)c3ccc4c(c3)oc(=O)n4C)C2)c(C(=O)O)cc1OC` (centres undefined), for which the inhibition is -19.2%.
Next, `Cc1cccc(C)c1Nc1sc(C(=O)c2ccccc2)c(N)c1C(=O)Nc1ccc(F)cc1`: 3.4%; `COc1cccc(-c2ccc3c(N)c(C(=O)c4ccc(Cl)cc4)sc3n2)c1`: -10.3%.
On to `CCC(C)NC(=O)Cn1ncc2c([nH]c3ccc(C)cc32)c1=O` (centres undefined), for which the inhibition is -18.3%.
For `O=C(Nc1nc2n(n1)C(c1ccccc1)C=C(c1ccccc1)N2)c1ccc(Cl)c([N+](=O)[O-])c1` (centres undefined) the value was 10.3%; for `CCOC(=O)c1ccc(N2C(=O)c3n[nH]c(-c4cccs4)c3C2c2ccc(C(C)(C)C)cc2)cc1` (centres undefined), -2.42%.
For `CCOc1ccccc1NC(=O)Cn1c(=O)n(Cc2ccccc2)c(=O)c2c(C)c(C)sc21` the value was -8.82%; for `CCc1cccc(NC(=O)Cn2nc(-c3ccc(OC)cc3)ccc2=O)c1`, 7.22%.
As for `O=C(NCCSCc1cccc(Cl)c1)C1CCN(S(=O)(=O)Cc2ccccc2)CC1`, the inhibition is -6.62%.
As to `Cc1ccc(Cl)cc1NC(=O)CSc1ccc(C(=O)O)cn1`, the inhibition worked out at 11.5%.
Turning to `CCN(CC)c1ccc(NC(=O)c2cc(C)nc3c2c(C)nn3-c2cccc(F)c2)c(C)c1`, the inhibition amounted to 0.292%.
Next, `Cc1ccc(CNC(=O)CCS(=O)(=O)c2ccc3c(c2)oc(=O)n3C)cc1`: active: 30.3%; `O=C1CC(c2ccccc2)Sc2nc(-c3ccc(F)cc3)nn21` (centres undefined): -7.27%.
Next, `O=C(c1[nH]c2ccccc2c1Sc1ccc(Cl)cc1)N1CCCCC1`: 24.3%; `Cc1ccc(OCC(=O)OCc2cc(=O)n3nc(C4CCCCC4)sc3n2)cc1C`: 9.35%; `COc1ccc(C(=O)Nc2cc(C(C)C)c(O)c(S(=O)(=O)c3ccc(Cl)cc3)c2C)cc1`: -3.35%.
As to `O=C1CC(N2CCC(c3nc4ccccc4s3)CC2)C(=O)N1` (centres undefined), the inhibition was active: 32.8%.
Next, `CCOc1ccccc1CNCc1c(C(=O)O)c(C)n(Cc2ccc(Cl)cc2)c1C`: -28.4%.
For the molecule `CCN(Cc1ccccc1)Cc1c(O)ccc2c(=O)c(-c3ccccc3)c(C(F)(F)F)oc12`, the inhibition turned out to be 15.4%.
For `CCOc1cccc(CC(=O)N2CCc3c([nH]c4ccccc34)C2c2ccccc2)c1OCC` (centres undefined) the value was -0.0766%.
Next, `CCn1nc(C)c2c(-c3ccccc3)cc(=O)n(C(C)C(=O)NCc3cccc(OC)c3)c21` (centres undefined): 3.63%; `CCC1CCCCN1CCCNC(=O)c1ccc2c(c1)N(Cc1ccccc1)C(=O)c1ccccc1S2(=O)=O` (centres undefined): 22.5%; `CCN(CC)c1ccc(CN(C(=O)Cc2coc3ccc(C)cc23)C2CCS(=O)(=O)C2)cc1` (centres undefined): -13.8%.
Take `CCc1ccc(OCCCn2c(-c3ccc(Cl)cc3)nc3ccccc3c2=O)cc1`: the inhibition amounted to 4.13%.
For `Cc1ccc(-c2nc3scc(CCNS(=O)(=O)c4ccc(F)c(C)c4)n3n2)cc1` the value was -24%.
Next, `COc1ccc(-c2nc3cc(C(C)C)ccc3o2)cc1NC(=O)COc1ccc(C)cc1C`: -2.19%; `CCN(CC)CCNC(=O)c1ccc2c(c1)NC(=O)C(CS(=O)(=O)Cc1cccc(Br)c1)N2` (centres undefined): -8.97%; `O=C(Cn1c(=O)c2ccccc2n(CC(=O)Nc2ccc(F)cc2F)c1=O)NCCc1ccccc1`: 20.4%.
Take `COc1ccc(NC(=O)CCSc2nc(-c3ccco3)cc(C(F)(F)F)n2)cc1`: the inhibition is -8.01%.
Take `CCOC(=O)C(=CNCC(=O)OC)C(=O)OCC`: the inhibition is active: 36.1%.
Next, `Cc1ccc(C)c(Nc2ncnc3onc(C)c23)c1`: -8.68%.
